# Data taken from the supplement of paper PMC10600219.
# Structures can show the parent of a compound that is named as a salt. The full ranking holds about 2,800 compounds; the median of “cell viability relative to vehicle” is about 1.1, and the lowest 2% start at about 0.19. This is one part of the list.
# Tested on: NCI-H2228 parental
# Assay: cell viability relative to vehicle (fraction of vehicle); NCI-H2228 is an ALK-positive lung cancer line and DTP means drug-tolerant persister; higher = less growth inhibition
# Conditions: 100 nM; treatment time 6 days
# Outline: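 Values give cell viability as a fraction of vehicle-treated cells. Parental and drug-tolerant persister NCI-H2228 cells (persisters made with 1000 nM of a targeted drug for 13 days) were exposed in 384-well plates to the 3114-agent TargetMol anti-cancer compound library at 100 nM, with DMSO as vehicle. ATP was then read after 6 days by the CellTiter-Glo 3D Cell Viability Assay.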
row,Compound,cell viability
1,CNCCN(C)Cc1cn[nH]c1-c1ccc(OC2CC(OCCC3CCOCC3)C2)cc1 (stereo not drawn),1.13
2,C[C@@H]1CN(c2c(F)c(N)c3c(=O)c(C(=O)O)cn(C4CC4)c3c2F)C[C@H](C)N1 [Sparfloxacin],1.05
3,CCNC(=O)c1noc(-c2cc(Cl)c(O)cc2O)c1-c1ccc(OC)cc1,0.237
4,CS(=O)(=O)Nc1cc(-c2ccc3ncnc(Nc4ccc(F)c(Cl)c4)c3c2)cnc1Cl,1.08
5,CCOC(=O)c1ccc(N2NC(=O)C(=Cc3ccc([N+](=O)[O-])o3)C2=O)cc1,1.06
6,O=C(O)c1ccc(CN2C[C@@H]3C[C@H]2CN3Cc2ccc(Oc3ccc(-c4ncco4)cc3)cc2)cc1 [Acebilustat],1.05
7,NC(=O)c1[nH]cnc1N [4-Amino-5-imidazolecarboxamide],1.23
8,N#CN=C(NCCCCCCOc1ccc(Cl)cc1)Nc1ccncc1,0.0557
9,CCn1cc(C(=O)O)c(=O)c2cc(F)c(N3CCN(C)CC3)cc21 [Pefloxacin Mesylate Dihydrate],1.04
10,C=CC(=O)Nc1cccc(Nc2nc(Nc3ccc(NC4CN(CCF)C4)cc3OC)ncc2C(F)(F)F)c1,0.955
11,Cc1cc(Nc2cc(Cl)nc(Oc3ccc([N+](=O)[O-])cc3)n2)n[nH]1 [Autophinib],1.2
12,CCn1cc(C(=O)O)c(=O)c2cc(F)c(N3CCNC(C)C3)c(F)c21 (stereo not drawn) [Lomefloxacin hydrochloride],0.996
13,CCn1cc(C(=O)O)c(=O)c2cc(F)c(N3CCNC(C)C3)c(F)c21 (stereo not drawn) [Lomefloxacin],1.32
14,CS(=O)(=O)Nc1ccc([N+](=O)[O-])cc1Oc1ccccc1 [Nimesulide],0.932
15,NC(=O)c1nc(-c2c(F)cccc2Cl)oc1Nc1ccc(C(=O)N2CCOCC2)cc1,0.949
16,CNC(=C[N+](=O)[O-])NCCSCc1csc(CN(C)C)n1 [Nizatidine],1.13
17,CC(C)=CCC[C@](C)(O[C@@H]1O[C@H](CO)[C@@H](O)[C@H](O)[C@H]1O)[C@H]1CC[C@]2(C)[C@@H]1[C@H](O)C[C@@H]1[C@@]3(C)CC[C@H](O)C(C)(C)[C@@H]3[C@@H](O[C@@H]3O[C@H](CO)[C@@H](O)[C@H](O)[C@H]3O[C@@H]3OC[C@@H](O)[C@H](O)[C@H]3O)C[C@]12C [Notoginsenoside R1],1.11
18,O=c1c(O)c(-c2ccc(O)cc2)oc2c(O)c(O)cc(O)c12 [Herbacetin],0.981
19,OCc1ccccc1 [Benzyl alcohol],1.05
20,CCC1=C[C@@H]2CN(C1)Cc1c([nH]c3ccccc13)[C@@](C(=O)OC)(c1cc3c(cc1OC)N(C)[C@H]1[C@@](O)(C(=O)OC)[C@H](OC(C)=O)[C@]4(CC)C=CCN5CC[C@]31[C@@H]54)C2 [Vinorelbine Tartrate],0.934
21,CC(C)CN(C[C@@H](O)[C@H](Cc1ccccc1)NC(=O)O[C@H]1CCOC1)S(=O)(=O)c1ccc(N)cc1 [Amprenavir],1.13
22,CC1(C)[C@@H](O[C@H]2O[C@H](C(=O)O)[C@@H](O)[C@H](O)[C@H]2O[C@@H]2O[C@H](C(=O)O)[C@@H](O)[C@H](O)[C@H]2O)CC[C@]2(C)[C@H]3C(=O)C=C4[C@@H]5C[C@@](C)(C(=O)O)CC[C@]5(C)CC[C@@]4(C)[C@]3(C)CC[C@@H]12 [Glycyrrhizin],1.3

row,Compound,cell viability
1,CC1(C)[C@@H](O[C@H]2O[C@H](C(=O)O)[C@@H](O)[C@H](O)[C@H]2O[C@@H]2O[C@H](C(=O)O)[C@@H](O)[C@H](O)[C@H]2O)CC[C@]2(C)[C@H]3C(=O)C=C4[C@@H]5C[C@@](C)(C(=O)O)CC[C@]5(C)CC[C@@]4(C)[C@]3(C)CC[C@@H]12 [Diammonium Glycyrrhizinate],1.2
2,COc1cc2nccc(Oc3ccc(NC(=O)Nc4ccc(F)cc4F)c(F)c3)c2cc1OC,1.08
3,C[C@]12C=CC(=O)C=C1CC[C@@H]1[C@@H]2C(=O)C[C@@]2(C)[C@H]1CC[C@]2(O)C(=O)CO [Prednisone],0.937
4,N#Cc1ccc(Cn2cncc2CN2CCN(c3cccc(Cl)c3)C(=O)C2)cc1,0.975
5,c1ccc2c(Oc3nc(Nc4ccc(N5CCOCC5)cc4)c4ncn(C5CCCCC5)c4n3)cccc2c1 [Purmorphamine],1.06
6,CCN1C(=O)CNc2ncc(-c3ccc(-c4nc[nH]n4)nc3C)nc21,0.9
7,C[n+]1cccc(C(=O)[O-])c1 [Trigonelline hydrochloride],0.987
8,COc1cc(C)c(/C=C/C(C)=C/C=C/C(C)=C/C(=O)O)c(C)c1C [Acitretin],1.11
9,C[C@@H]1COCCN1c1cc(C2([S@](C)(=N)=O)CC2)nc(-c2cc[nH]c3nccc2-3)n1,1.09
10,COc1c(O[C@@H]2O[C@H](C(=O)O)[C@@H](O)[C@H](O)[C@H]2O)cc(O)c2c(=O)cc(-c3ccccc3)oc12 [Wogonoside],1.08
11,CC(C)(F)C[C@H](N[C@@H](c1ccc(-c2ccc(S(C)(=O)=O)cc2)cc1)C(F)(F)F)C(=O)NC1(C#N)CC1 [Odanacatib],0.99
12,CC(C)OC(=O)CCC/C=C\C[C@@H]1[C@@H](CC[C@@H](O)CCc2ccccc2)[C@H](O)C[C@@H]1O [Latanoprost],1.09
13,COc1cc(/C=C/C(=O)O)ccc1O [Ferulic Acid],1.03
14,COc1cc(/C=C/C(=O)O)ccc1O [Sodium ferulic],1.15
15,C[N+]1(C)CCC(=C(c2ccccc2)c2ccccc2)CC1 [Diphemanil mesylate],1.09
16,NS(=O)(=O)c1cc2c(cc1Cl)NCNS2(=O)=O [Hydrochlorothiazide],1.27
17,O=C(NC1CCOCC1)c1ccc(-c2cc(-c3c[nH]nc3-c3ccccn3)ccn2)cc1,1.01
18,O=C1C(=O)N(Cc2ccc(Cl)c(Cl)c2)c2ccccc21 [Apoptosis Activator 2],1.13
19,CN(C)CCc1c[nH]c2ccc(C[C@H]3COC(=O)N3)cc12 [Zolmitriptan],1.02
20,CN(C)CCC=C1c2ccccc2C=Cc2ccccc21 [Cyclobenzaprine hydrochloride],1.4
21,O=C1c2cccc(O)c2C(=O)c2c(O)cc(CO)cc21 [Aloe-emodin],1.3
